Measurements reported in the supplement of paper PMC9446081.
About 220 (0.56%) of roughly 39,000 compounds showed activity. The list shows a part of the results.

Test system: Escherichia coli K-12 BW25113
Assay: relative growth (OD600 normalised to plate interquartile mean) (fraction); higher = less growth inhibition, active = 0.2 or less
Conditions: 50 µM; LB; incubation time: overnight (16-24 h)
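Further: static incubation at 37 °C against the wild-type strain, values averaged over two biological replicates.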

| SMILES | relative growth |
| --- | --- |
| CC(C)NC(=O)Nc1ccc2c(c1)C(=O)N([C@H](C)CO)C[C@H](C)[C@@H](CN(C)S(=O)(=O)c1ccccc1)O2 | inactive: 0.997 |
| C[C@@H]1CN([C@H](C)CO)C(=O)c2cc(NC(=O)Nc3ccc(F)cc3)ccc2O[C@H]1CN(C)CC1CCCCC1 | inactive: 0.992 |
| COc1ccc(NC(=O)N(C)C[C@H]2Oc3ccc(NS(C)(=O)=O)cc3C(=O)N([C@@H](C)CO)C[C@@H]2C)cc1 | inactive: 0.982 |
| C[C@H](CO)N1C[C@H](C)[C@H](CN(C)C(=O)C2CCCCC2)OCCCC[C@H](C)Oc2ccc(NC(=O)c3ccncc3)cc2C1=O | inactive: 1 |
| CN1C(=O)c2cc(NC(=O)Cc3cccs3)ccc2OC[C@H]2O[C@@H](CC(=O)NCCc3ccncc3)CC[C@@H]21 | inactive: 0.996 |
| C[C@H]1CN([C@@H](C)CO)C(=O)c2cc(NC(=O)Cc3ccccc3)ccc2O[C@H]1CN(C)S(=O)(=O)c1cccs1 | inactive: 1.02 |
| C[C@@H]1CCCCO[C@@H](CN(C)Cc2ccc3c(c2)OCO3)[C@H](C)CN([C@H](C)CO)C(=O)c2cc(NC(=O)C3CCCCC3)ccc2O1 | inactive: 1.01 |
| COCCNC(=O)C[C@H]1C[C@H]2c3cc(NC(=O)Nc4ccc(C(F)(F)F)cc4)ccc3O[C@H]2[C@@H](CO)O1 | inactive: 0.988 |
| C[C@@H]1CCCCO[C@H](CN(C)S(=O)(=O)c2ccc(Cl)cc2)[C@@H](C)CN([C@@H](C)CO)C(=O)c2cc(NC(=O)Nc3cccc4ccccc34)ccc2O1 | inactive: 0.911 |
| C[C@H]1CN([C@@H](C)CO)C(=O)Cc2cc(NC(=O)Nc3ccc4c(c3)OCO4)ccc2O[C@@H]1CN(C)Cc1ccc(Oc2ccccc2)cc1 | inactive: 1.02 |
| COc1ccc(S(=O)(=O)Nc2ccc3c(c2)C(=O)N([C@H](C)CO)C[C@H](C)[C@H](CN(C)C(=O)c2ccccc2)OCCCC[C@H](C)O3)cc1 | inactive: 1.02 |
| CCN(CC)CCNC(=O)c1ccc(NC(C)=O)cc1.Cl | inactive: 0.996 |
| COC(=O)C[C@H]1CC[C@@H]2[C@H](COC[C@H](O)CN2S(=O)(=O)c2ccc(F)cc2)O1 | inactive: 1.01 |
| C[C@@H]1CN([C@H](C)CO)C(=O)c2cccc(NC(=O)C3CCCCC3)c2O[C@H]1CN(C)Cc1ccc(Cl)c(Cl)c1 | inactive: 0.973 |
| CC(C)[C@@H](O)C[C@@H](C)O[C@@H]1O[C@H](CO)[C@@H](O)[C@H](O)[C@H]1O | inactive: 0.982 |
| COC(=O)c1cccc(NC(=N)N=C(N)N)c1 | inactive: 1.02 |
| COc1ccc2nc3cc(Cl)ccc3c(Nc3cc(CN4CCCC4)c(O)c(CN4CCCC4)c3)c2n1.O=P(O)(O)O.O=P(O)(O)O.O=P(O)(O)O.O=P(O)(O)O | inactive: 1.08 |
